The other results are listed elsewhere or left out.
Experiments:
Assay in all cases: glycan array binding signal (z-score within array); higher = stronger binding
Details in all cases: glycan notation: IUPAC condensed, linker removed
[1] = target: Gal(b1-4)GlcNAc(b1-3)Gal(b1-4)GlcNAc(b1-2)Man(a1-3)[Gal(b1-4)GlcNAc(b1-3)Gal(b1-4)GlcNAc(b1-2)Man(a1-6)]Man(b1-4)GlcNAc(b1-4)[Fuc(a1-6)]GlcNAc
Summary of the method: (§1)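 Columns mapping to the same glycan were averaged after glycan names were converted to IUPAC-condensed notation. The data come from 3228 arrays in the Consortium for Functional Glycomics database, limited to those with an available protein sequence. Binding is reported as a within-array Z-score averaged across arrays of one protein sequence and across linkers.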

[2] = target: Gal(b1-4)GlcNAc(b1-3)Gal(b1-4)GlcNAc(b1-2)[Gal(b1-4)GlcNAc(b1-3)Gal(b1-4)GlcNAc(b1-6)]Man(a1-6)[Gal(b1-4)GlcNAc(b1-3)Gal(b1-4)GlcNAc(b1-2)Man(a1-3)]Man(b1-4)GlcNAc(b1-4)GlcNAc
Summary of the method: as §1

[3] = target: Gal(b1-4)GlcNAc(b1-3)Gal(b1-4)GlcNAc(b1-2)[Gal(b1-4)GlcNAc(b1-3)Gal(b1-4)GlcNAc(b1-6)]Man(a1-6)[Gal(b1-4)GlcNAc(b1-3)Gal(b1-4)GlcNAc(b1-2)Man(a1-3)]Man(b1-4)GlcNAc(b1-4)[Fuc(a1-6)]GlcNAc
Summary of the method: as §1

[4] = target: Gal(b1-4)GlcNAc(b1-3)Gal(b1-4)GlcNAc(b1-3)Gal(b1-4)GlcNAc
Summary of the method: as §1

[5] = target: Gal(b1-4)GlcNAc(b1-3)Gal(b1-4)GlcNAc(b1-3)Gal(b1-4)GlcNAc(b1-2)Man(a1-3)[Gal(b1-4)GlcNAc(b1-3)Gal(b1-4)GlcNAc(b1-3)Gal(b1-4)GlcNAc(b1-2)Man(a1-6)]Man(b1-4)GlcNAc(b1-4)GlcNAc
Summary of the method: as §1

[6] = target: Gal(b1-4)GlcNAc(b1-3)Gal(b1-4)GlcNAc(b1-3)Gal(b1-4)GlcNAc(b1-2)Man(a1-3)[Gal(b1-4)GlcNAc(b1-3)Gal(b1-4)GlcNAc(b1-3)Gal(b1-4)GlcNAc(b1-2)Man(a1-6)]Man(b1-4)GlcNAc(b1-4)[Fuc(a1-6)]GlcNAc
Summary of the method: as §1

[7] = target: Gal(b1-4)GlcNAc(b1-3)Gal(b1-4)GlcNAc(b1-3)Gal(b1-4)GlcNAc(b1-2)[Gal(b1-4)GlcNAc(b1-3)Gal(b1-4)GlcNAc(b1-3)Gal(b1-4)GlcNAc(b1-6)]Man(a1-6)[Gal(b1-4)GlcNAc(b1-3)Gal(b1-4)GlcNAc(b1-3)Gal(b1-4)GlcNAc(b1-2)Man(a1-3)]Man(b1-4)GlcNAc(b1-4)[Fuc(a1-6)]GlcNAc
Summary of the method: as §1

[8] = target: Gal(b1-4)GlcNAc(b1-3)Gal(b1-4)GlcNAc(b1-3)Gal(b1-4)GlcNAc(b1-3)Gal(b1-4)GlcNAc(b1-2)Man(a1-3)[Gal(b1-4)GlcNAc(b1-3)Gal(b1-4)GlcNAc(b1-3)Gal(b1-4)GlcNAc(b1-3)Gal(b1-4)GlcNAc(b1-2)Man(a1-6)]Man(b1-4)GlcNAc(b1-4)GlcNAc
Summary of the method: as §1

[9] = target: Gal(b1-4)GlcNAc(b1-3)Gal(b1-4)GlcNAc(b1-3)Gal(b1-4)GlcNAc(b1-3)Gal(b1-4)GlcNAc(b1-2)Man(a1-3)[Gal(b1-4)GlcNAc(b1-3)Gal(b1-4)GlcNAc(b1-3)Gal(b1-4)GlcNAc(b1-3)Gal(b1-4)GlcNAc(b1-2)Man(a1-6)]Man(b1-4)GlcNAc(b1-4)[Fuc(a1-6)]GlcNAc
Summary of the method: as §1

[10] = target: Gal(b1-4)GlcNAc(b1-3)Gal(b1-4)GlcNAc(b1-3)Gal(b1-4)GlcNAc(b1-3)Gal(b1-4)GlcNAc(b1-2)[Gal(b1-4)GlcNAc(b1-3)Gal(b1-4)GlcNAc(b1-3)Gal(b1-4)GlcNAc(b1-3)Gal(b1-4)GlcNAc(b1-6)]Man(a1-6)[Gal(b1-4)GlcNAc(b1-3)Gal(b1-4)GlcNAc(b1-3)Gal(b1-4)GlcNAc(b1-3)Gal(b1-4)GlcNAc(b1-2)Man(a1-3)]Man(b1-4)GlcNAc(b1-4)[Fuc(a1-6)]GlcNAc
Summary of the method: as §1

[11] = target: Gal(b1-4)GlcNAc(b1-3)Gal(b1-4)GlcNAc(b1-3)Gal(b1-4)GlcNAc(b1-3)Gal(b1-4)GlcNAc(b1-3)Gal(b1-4)GlcNAc(b1-2)Man(a1-3)[Gal(b1-4)GlcNAc(b1-3)Gal(b1-4)GlcNAc(b1-3)Gal(b1-4)GlcNAc(b1-3)Gal(b1-4)GlcNAc(b1-3)Gal(b1-4)GlcNAc(b1-2)Man(a1-6)]Man(b1-4)GlcNAc(b1-4)GlcNAc
Summary of the method: as §1

[12] = target: Gal(b1-4)GlcNAc(b1-3)Gal(b1-4)GlcNAc(b1-3)Gal(b1-4)GlcNAc(b1-3)Gal(b1-4)GlcNAc(b1-3)Gal(b1-4)GlcNAc(b1-2)Man(a1-3)[Gal(b1-4)GlcNAc(b1-3)Gal(b1-4)GlcNAc(b1-3)Gal(b1-4)GlcNAc(b1-3)Gal(b1-4)GlcNAc(b1-3)Gal(b1-4)GlcNAc(b1-2)Man(a1-6)]Man(b1-4)GlcNAc(b1-4)[Fuc(a1-6)]GlcNAc
Summary of the method: as §1

[13] = target: Gal(b1-4)GlcNAc(b1-3)Gal(b1-4)GlcNAc(b1-3)Gal(b1-4)GlcNAc(b1-3)Gal(b1-4)GlcNAc(b1-3)Gal(b1-4)GlcNAc(b1-2)[Gal(b1-4)GlcNAc(b1-3)Gal(b1-4)GlcNAc(b1-3)Gal(b1-4)GlcNAc(b1-3)Gal(b1-4)GlcNAc(b1-3)Gal(b1-4)GlcNAc(b1-6)]Man(a1-6)[Gal(b1-4)GlcNAc(b1-3)Gal(b1-4)GlcNAc(b1-3)Gal(b1-4)GlcNAc(b1-3)Gal(b1-4)GlcNAc(b1-3)Gal(b1-4)GlcNAc(b1-2)Man(a1-3)]Man(b1-4)GlcNAc(b1-4)[Fuc(a1-6)]GlcNAc
Summary of the method: as §1

[14] = target: Gal(b1-4)GlcNAc(b1-3)Gal(b1-4)GlcNAc(b1-3)Gal(b1-4)GlcNAc(b1-3)Gal(b1-4)GlcNAc(b1-3)Gal(b1-4)GlcNAc(b1-3)Gal(b1-4)GlcNAc(b1-2)Man(a1-3)[Gal(b1-4)GlcNAc(b1-3)Gal(b1-4)GlcNAc(b1-3)Gal(b1-4)GlcNAc(b1-3)Gal(b1-4)GlcNAc(b1-3)Gal(b1-4)GlcNAc(b1-3)Gal(b1-4)GlcNAc(b1-2)Man(a1-6)]Man(b1-4)GlcNAc(b1-4)GlcNAc
Summary of the method: as §1

[15] = target: Gal(b1-4)GlcNAc(b1-3)Gal(b1-4)GlcNAc(b1-3)GalNAc
Summary of the method: as §1

[16] = target: Gal(b1-4)GlcNAc(b1-3)Gal(b1-4)GlcNAc(b1-3)[Gal(b1-4)GlcNAc(b1-3)Gal(b1-4)GlcNAc(b1-6)]GalNAc
Summary of the method: as §1

[17] = target: Gal(b1-4)GlcNAc(b1-3)Gal(b1-4)GlcNAc(b1-6)[Gal(b1-3)]GalNAc
Summary of the method: as §1

[18] = target: Gal(b1-4)GlcNAc(b1-3)Gal(b1-4)[Fuc(a1-3)]GlcNAc(b1-3)Gal(b1-4)[Fuc(a1-3)]GlcNAc
Summary of the method: as §1

[19] = target: Gal(b1-4)GlcNAc(b1-3)GalNAc
Summary of the method: as §1

[20] = target: Gal(b1-4)GlcNAc(b1-3)[Fuc(a1-3)GlcNAc(b1-6)]Gal(b1-4)Glc
Summary of the method: as §1

[21] = target: Gal(b1-4)GlcNAc(b1-3)[Gal(b1-4)GlcNAc(b1-6)]Gal(b1-4)GlcNAc
Summary of the method: as §1

[22] = target: Gal(b1-4)GlcNAc(b1-3)[GlcNAc(b1-6)]Gal(b1-4)GlcNAc
Summary of the method: as §1

[23] = target: Gal(b1-4)GlcNAc(b1-6)Gal(b1-4)GlcNAc
Summary of the method: as §1

[24] = target: Gal(b1-4)GlcNAc(b1-6)GalNAc
Summary of the method: as §1

[25] = target: Gal(b1-4)GlcNAc(b1-6)[Gal(b1-3)]GalNAc
Summary of the method: as §1

[26] = target: Gal(b1-4)GlcNAc(b1-6)[Gal(b1-4)GlcNAc(b1-3)]GalNAc
Summary of the method: as §1

[27] = target: Gal(b1-4)GlcNAc6P
Summary of the method: as §1

[28] = target: Gal(b1-6)Gal
Summary of the method: as §1

[29] = target: Gal3S(b1-3)GalNAc
Summary of the method: as §1

[30] = target: Gal3S(b1-3)GlcNAc
Summary of the method: as §1

B1: Di AAL2 (Agrocybe aegerita) (protein)
chain: MTSNVITQDLPIPVASRGFADIVGFGLDGVVIGRNAVNLQPFLAVKNFAQNAGGWLTTKHVRLIADTTGTGKGDIVGFGNAGVYVSVNNGKNTFADPPKMVIANFGYDAGGWRVEKHLRYLADIRKIGRADIIGFGEKGVLVSRNNGGLNFGPATLVLKDFGYDAGGWRLDRHLRFLADVTGNGHLDIVGFGDKHVFISRNNGDGTFAPAKSVIDNFCIDAGGWKIGDHPRFVADLTGDGTADIIGCGKAGCWVALNNGGGVFGQVKLVINDFGTDKGWQAAKHPRFIADLTGNGRGDVVGFGNAGVYVALNNGDGTFQSAKLVLKDFGVQQGWTVSKHRRFVVDLTGDGCADIIGFGEKETLVSYNDGKGNFGPVKALTNDFSFSGGKWAPETTVCWMANLDSSRHPAPAPMTSNVITQDLPIPVASRGFADIVGFGLDGVVIGRNAVNLQPFLAVKNFAQNAGGWLTTKHVRLIADTTGTGKGDIVGFGNAGVYVSVNNGKNTFADPPKMVIANFGYDAGGWRVEKHLRYLADIRKIGRADIIGFGEKGVLVSRNNGGLNFGPATLVLKDFGYDAGGWRLDRHLRFLADVTGNGHLDIVGFGDKHVFISRNNGDGTFAPAKSVIDNFCIDAGGWKIGDHPRFVADLTGDGTADIIGCGKAGCWVALNNGGGVFGQVKLVINDFGTDKGWQAAKHPRFIADLTGNGRGDVVGFGNAGVYVALNNGDGTFQSAKLVLKDFGVQQGWTVSKHRRFVVDLTGDGCADIIGFGEKETLVSYNDGKGNFGPVKALTNDFSFSGGKWAPETTVCWMANLDSSRH
[1]
  glycan array binding signal (z-score): 0.002
[2]
  glycan array binding signal (z-score): -0.28
[3]
  glycan array binding signal (z-score): -0.1
[4]
  glycan array binding signal (z-score): -0.303
[5]
  glycan array binding signal (z-score): 0.016
[6]
  glycan array binding signal (z-score): -0.209
[7]
  glycan array binding signal (z-score): -0.178
[8]
  glycan array binding signal (z-score): -0.095
[9]
  glycan array binding signal (z-score): -0.284
[10]
  glycan array binding signal (z-score): -0.141
[11]
  glycan array binding signal (z-score): -0.242
[12]
  glycan array binding signal (z-score): -0.282
[13]
  glycan array binding signal (z-score): -0.077
[14]
  glycan array binding signal (z-score): -0.063
[15]
  glycan array binding signal (z-score): 0.462
[16]
  glycan array binding signal (z-score): -0.255
[17]
  glycan array binding signal (z-score): -0.295
[18]
  glycan array binding signal (z-score): -0.256
[19]
  glycan array binding signal (z-score): -0.328
[20]
  glycan array binding signal (z-score): -0.319
[21]
  glycan array binding signal (z-score): -0.325
[22]
  glycan array binding signal (z-score): -0.273
[23]
  glycan array binding signal (z-score): -0.332
[24]
  glycan array binding signal (z-score): -0.311
[25]
  glycan array binding signal (z-score): -0.307
[26]
  glycan array binding signal (z-score): -0.313
[27]
  glycan array binding signal (z-score): -0.327
[28]
  glycan array binding signal (z-score): -0.322
[29]
  glycan array binding signal (z-score): -0.334
[30]
  glycan array binding signal (z-score): -0.341

Source: the supplement of paper PMC8728848
